The other results are listed elsewhere or left out. The list includes weakly bound sequences.

In publication PMC12820563 one finds binding signal (RPM ratio (pull-down/input)) data, which are given here for 40 sequences.

This assay concerns the target T1, MBP-FoxP3dN (UniProt Q99JB6).
T1 sequence: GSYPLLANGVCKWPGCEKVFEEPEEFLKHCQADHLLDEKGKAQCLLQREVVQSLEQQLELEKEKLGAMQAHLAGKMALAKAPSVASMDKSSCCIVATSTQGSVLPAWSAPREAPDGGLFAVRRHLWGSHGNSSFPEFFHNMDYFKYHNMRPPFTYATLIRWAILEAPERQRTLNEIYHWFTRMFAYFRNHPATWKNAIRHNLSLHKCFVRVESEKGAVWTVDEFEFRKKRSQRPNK
Description: PD-seq (MBP pull-down with sequencing). The following applies: 20 mM Tris-HCl pH 7.5, 100 mM NaCl, 1.5 mM MgCl2, 0.4 uM protein, 0.1 uM dsDNA library, 30 min, room temperature, amylose pull-down; high values mean tight binding; double strand, one strand shown.
On to “GATGATTGTTCTCCCAGCTGATGAATTAAGGACATCGAGTAAACAAATTTTCCTAATCTTTCTGTTCAAGCGCCATCTAC”, for which the binding signal (RPM ratio (pull-down/input)) worked out at 0.425.

“GATGATTGTTCTCCCAGCTGATGAATTGTGCTCCTCGAGTAAACAAATTTTCCTAATCTTTCTGTTCAAGCGCCATCTAC”: the binding signal (RPM ratio (pull-down/input)) worked out at 1.3. The result for “GATGATTGTTCTCCCAGCTGATGAATTTGGTTTTTCGAGTAAACAAATTTTCCTAATCTTTCTGTTCAAGCGCCATCTAC” reads 2.25. Take “GATGATTGTTCTCCCAGCTGATGAATTTGGAATATCGAGTAAACAAATTTTCCTAATCTTTCTGTTCAAGCGCCATCTAC”: the binding signal (RPM ratio (pull-down/input)) was 0.536. To “GATGATTGTTCTCCCAGCTGATGAATTGTGTAGATCGAGTAAACAAATTTTCCTAATCTTTCTGTTCAAGCGCCATCTAC” belongs 2.16; to “GATGATTGTTCTCCCAGCTGATGAATTTAGGGTGTCGAGTAAACAAATTTTCCTAATCTTTCTGTTCAAGCGCCATCTAC”, 1.23. The result for “GATGATTGTTCTCCCAGCTGATGAATTAATACTGTCGAGTAAACAAATTTTCCTAATCTTTCTGTTCAAGCGCCATCTAC” reads 0.475; that for “GATGATTGTTCTCCCAGCTGATGAATTGTTGCCTTCGAGTAAACAAATTTTCCTAATCTTTCTGTTCAAGCGCCATCTAC”, 4.01.

Take “GATGATTGTTCTCCCAGCTGATGAATTAGTGGATTCGAGTAAACAAATTTTCCTAATCTTTCTGTTCAAGCGCCATCTAC”: the binding signal (RPM ratio (pull-down/input)) came to 0.984.

Consider “GATGATTGTTCTCCCAGCTGATGAATTTGTCTTGTCGAGTAAACAAATTTTCCTAATCTTTCTGTTCAAGCGCCATCTAC”, for which the binding signal (RPM ratio (pull-down/input)) was found to be 4.08. As to “GATGATTGTTCTCCCAGCTGATGAATTCTGAGCATCGAGTAAACAAATTTTCCTAATCTTTCTGTTCAAGCGCCATCTAC”, the binding signal (RPM ratio (pull-down/input)) amounted to 0.756. The result for “GATGATTGTTCTCCCAGCTGATGAATTAATAAATTCGAGTAAACAAATTTTCCTAATCTTTCTGTTCAAGCGCCATCTAC” reads 0.343; that for “GATGATTGTTCTCCCAGCTGATGAATTCACTTGATCGAGTAAACAAATTTTCCTAATCTTTCTGTTCAAGCGCCATCTAC”, 0.317.

With “GATGATTGTTCTCCCAGCTGATGAATTCCTCACCTCGAGTAAACAAATTTTCCTAATCTTTCTGTTCAAGCGCCATCTAC”, the binding signal (RPM ratio (pull-down/input)) stood at 0.251. Consider “GATGATTGTTCTCCCAGCTGATGAATTTCAAATGTCGAGTAAACAAATTTTCCTAATCTTTCTGTTCAAGCGCCATCTAC”, for which the binding signal (RPM ratio (pull-down/input)) is 0.275. In the case of “GATGATTGTTCTCCCAGCTGATGAATTAAGTGGGTCGAGTAAACAAATTTTCCTAATCTTTCTGTTCAAGCGCCATCTAC”, the binding signal (RPM ratio (pull-down/input)) worked out at 0.63.

On to “GATGATTGTTCTCCCAGCTGATGAATTCCAGATCTCGAGTAAACAAATTTTCCTAATCTTTCTGTTCAAGCGCCATCTAC”, for which the binding signal (RPM ratio (pull-down/input)) is 0.24. The result for “GATGATTGTTCTCCCAGCTGATGAATTCCAGTCCTCGAGTAAACAAATTTTCCTAATCTTTCTGTTCAAGCGCCATCTAC” reads 0.408. Turning to “GATGATTGTTCTCCCAGCTGATGAATTTAAAGGGTCGAGTAAACAAATTTTCCTAATCTTTCTGTTCAAGCGCCATCTAC”, the binding signal (RPM ratio (pull-down/input)) was 0.218. On to “GATGATTGTTCTCCCAGCTGATGAATTTTTCTGATCGAGTAAACAAATTTTCCTAATCTTTCTGTTCAAGCGCCATCTAC”, for which the binding signal (RPM ratio (pull-down/input)) was found to be 0.211. To “GATGATTGTTCTCCCAGCTGATGAATTGTTAAGCTCGAGTAAACAAATTTTCCTAATCTTTCTGTTCAAGCGCCATCTAC” belongs 0.371.

Take “GATGATTGTTCTCCCAGCTGATGAATTCAACATTTCGAGTAAACAAATTTTCCTAATCTTTCTGTTCAAGCGCCATCTAC”: the binding signal (RPM ratio (pull-down/input)) was found to be 0.513.

With “GATGATTGTTCTCCCAGCTGATGAATTTTCAACCTCGAGTAAACAAATTTTCCTAATCTTTCTGTTCAAGCGCCATCTAC”, the binding signal (RPM ratio (pull-down/input)) stood at 0.255. Take “GATGATTGTTCTCCCAGCTGATGAATTTCAAACATCGAGTAAACAAATTTTCCTAATCTTTCTGTTCAAGCGCCATCTAC”: the binding signal (RPM ratio (pull-down/input)) came out at 0.569. “GATGATTGTTCTCCCAGCTGATGAATTTCACAGGTCGAGTAAACAAATTTTCCTAATCTTTCTGTTCAAGCGCCATCTAC”: the binding signal (RPM ratio (pull-down/input)) stood at 0.242. Take “GATGATTGTTCTCCCAGCTGATGAATTGAACCTCTCGAGTAAACAAATTTTCCTAATCTTTCTGTTCAAGCGCCATCTAC”: the binding signal (RPM ratio (pull-down/input)) is 0.351. The result for “GATGATTGTTCTCCCAGCTGATGAATTGGCATAGTCGAGTAAACAAATTTTCCTAATCTTTCTGTTCAAGCGCCATCTAC” reads 0.503. The result for “GATGATTGTTCTCCCAGCTGATGAATTAGCTCTCTCGAGTAAACAAATTTTCCTAATCTTTCTGTTCAAGCGCCATCTAC” reads 0.316. To “GATGATTGTTCTCCCAGCTGATGAATTGAGTATCTCGAGTAAACAAATTTTCCTAATCTTTCTGTTCAAGCGCCATCTAC” belongs 3.35.

“GATGATTGTTCTCCCAGCTGATGAATTAGATCAATCGAGTAAACAAATTTTCCTAATCTTTCTGTTCAAGCGCCATCTAC”: the binding signal (RPM ratio (pull-down/input)) was found to be 0.286. As for “GATGATTGTTCTCCCAGCTGATGAATTGGGCACGTCGAGTAAACAAATTTTCCTAATCTTTCTGTTCAAGCGCCATCTAC”, the binding signal (RPM ratio (pull-down/input)) worked out at 0.887. To “GATGATTGTTCTCCCAGCTGATGAATTGGAATTATCGAGTAAACAAATTTTCCTAATCTTTCTGTTCAAGCGCCATCTAC” belongs 0.625; to “GATGATTGTTCTCCCAGCTGATGAATTAGCTTACTCGAGTAAACAAATTTTCCTAATCTTTCTGTTCAAGCGCCATCTAC”, 3.94; to “GATGATTGTTCTCCCAGCTGATGAATTCGATTGTTCGAGTAAACAAATTTTCCTAATCTTTCTGTTCAAGCGCCATCTAC”, 4.97. To “GATGATTGTTCTCCCAGCTGATGAATTCACATATTCGAGTAAACAAATTTTCCTAATCTTTCTGTTCAAGCGCCATCTAC” belongs 0.448; to “GATGATTGTTCTCCCAGCTGATGAATTTCCAACGTCGAGTAAACAAATTTTCCTAATCTTTCTGTTCAAGCGCCATCTAC”, 0.279. To “GATGATTGTTCTCCCAGCTGATGAATTTACTTTGTCGAGTAAACAAATTTTCCTAATCTTTCTGTTCAAGCGCCATCTAC” belongs 1.71; to “GATGATTGTTCTCCCAGCTGATGAATTAACCGAGTCGAGTAAACAAATTTTCCTAATCTTTCTGTTCAAGCGCCATCTAC”, 0.206; to “GATGATTGTTCTCCCAGCTGATGAATTGGAAACATCGAGTAAACAAATTTTCCTAATCTTTCTGTTCAAGCGCCATCTAC”, 0.723.

As for “GATGATTGTTCTCCCAGCTGATGAATTGCCGATTTCGAGTAAACAAATTTTCCTAATCTTTCTGTTCAAGCGCCATCTAC”, the binding signal (RPM ratio (pull-down/input)) was found to be 0.713.
